Source: the supplement of paper PMC9446081
In all, about 39,000 compounds went through this assay and about 220 (0.56%) showed activity. The list shows a part of the results.

tested on: Escherichia coli K-12 BW25113; experiment: relative growth (OD600 normalised to plate interquartile mean) (fraction); higher = less growth inhibition, active = 0.2 or less; conditions: 50 µM; LB; incubation time: overnight (16-24 h)
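Further: static incubation at 37 °C against the wild-type strain, values averaged over two biological replicates.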

SMILES	relative growth
C[C@H](CO)N1C[C@H](C)[C@H](CN(C)C(=O)NC2CCCCC2)Oc2ccc(NC(=O)c3ccncc3)cc2CC1=O	inactive: 0.984
C[C@@H]1CCCCO[C@@H](CN(C)Cc2ccc3c(c2)OCO3)[C@@H](C)CN([C@H](C)CO)C(=O)c2cc(NS(=O)(=O)c3ccc(F)cc3)ccc2O1	inactive: 1
C[C@@H]1CN([C@@H](C)CO)C(=O)c2cccc(NC(=O)CCCCCC(=O)Nc3ccccc3N)c2O[C@H]1CN(C)Cc1ccccc1	inactive: 0.992
COCCOC(=O)N1C(=O)[C@@]2(c3cc(C#Cc4ccc(OC)cc4)ccc31)[C@H](c1ccc(OCCO)cc1)N1[C@H](c3ccccc3)[C@H](c3ccccc3)OC(=O)[C@H]1[C@@H]2C(=O)N1CCN(c2ncccn2)CC1	inactive: 1.05
Cc1ccc(S(=O)(=O)N(C)C[C@@H]2OCCCC[C@H](C)Oc3ccc(NS(=O)(=O)c4ccc(F)cc4)cc3C(=O)N([C@@H](C)CO)C[C@H]2C)cc1	inactive: 1.02
Cn1nnnc1-c1ccc(N)cc1	inactive: 1.01
Cc1noc(C)c1NC(=O)Nc1ccc2c(c1)C(=O)N([C@@H](C)CO)C[C@@H](C)[C@@H](CN(C)S(=O)(=O)c1ccccc1)O2	inactive: 0.989
CC(C)N=c1cc2n(-c3ccc(Cl)cc3)c3ccccc3nc-2cc1Nc1ccc(Cl)cc1	inactive: 0.897
COc1cc(C(=O)N2CCC(N3CCN(C)CC3)CC2)ccc1Nc1ncc2c(n1)N(C)c1ccccc1C(=O)N2C	inactive: 1.03
O=C(NO)c1ccc(-c2cn(CC(=O)N3CCOCC3)nn2)cc1	inactive: 0.844
O=C1O[C@@H](c2ccccc2)[C@@H](c2ccccc2)N2[C@@H](c3ccc(OCCO)cc3)[C@]3(C(=O)Nc4ccc(C#CCCO)cc43)[C@@H](C(=O)N3CCCCCCC3)[C@H]12	inactive: 1.01
C[C@H](CO)N1C[C@H](C)[C@@H](CN(C)S(=O)(=O)c2cccs2)Oc2c(NC(=O)c3ccncc3)cccc2C1=O	inactive: 0.999
C[C@@H]1CN([C@@H](C)CO)C(=O)c2cc(NS(=O)(=O)c3cn(C)cn3)ccc2O[C@@H]1CN(C)C(=O)Nc1ccccc1	inactive: 0.987
C[C@H](CO)N1C[C@H](C)[C@@H](CN(C)C(=O)C2CCCCC2)Oc2cc(C#C[C@@H](C)O)ccc2S1(=O)=O	inactive: 1.02
O=C(C[C@@H]1C[C@@H]2c3cc(NC(=O)Cc4ccncc4)ccc3O[C@@H]2[C@@H](CO)O1)NCCN1CCCCC1	inactive: 1.01
CC(C)C#Cc1ccc2c(c1)O[C@@H](CN(C)C(=O)c1cnccn1)[C@@H](C)CN([C@@H](C)CO)S2(=O)=O	inactive: 1.02
